About 1,500 (0.65%) of roughly 230,000 compounds were called active. Inconclusive results, whose numbers are uncertain, are shown with a selection of clear calls. Calls come from the whole dose curve; as a rule, active = well fitted inhibition curve with a large enough effect; inconclusive = small, poorly fitted or top-dose-only effect; inactive = no such curve, though single readings can be large or run the other way. Where the call is inconclusive, the potency comes from a doubtful curve fit.
target: Lethal(3)malignant brain tumor-like protein 1 (Homo sapiens) (UniProt Q9Y468); assay: qHTS Assay for the Inhibitors of L3MBTL1; settings: AlphaScreen L3MBTL1–H3K9me1 peptide binding; series mostly up to 57.1 µM; note: nearly all actives have a fitted effect of over 60% in size
Method in brief: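 Read-out is AlphaScreen signal from streptavidin donor and nickel chelate acceptor beads (10 ug/mL final each) bridging L3MBTL1 (50 nM) and biotinylated K9-monomethylated H3(1-15) peptide (75 nM), after 30 min compound exposure at room temperature.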
Potency is the fitted concentration of half-maximal effect; tags give direction and shape of the fitted curve.

Chain of UniProt Q9Y468 (Q9Y468 whole entry, looked up): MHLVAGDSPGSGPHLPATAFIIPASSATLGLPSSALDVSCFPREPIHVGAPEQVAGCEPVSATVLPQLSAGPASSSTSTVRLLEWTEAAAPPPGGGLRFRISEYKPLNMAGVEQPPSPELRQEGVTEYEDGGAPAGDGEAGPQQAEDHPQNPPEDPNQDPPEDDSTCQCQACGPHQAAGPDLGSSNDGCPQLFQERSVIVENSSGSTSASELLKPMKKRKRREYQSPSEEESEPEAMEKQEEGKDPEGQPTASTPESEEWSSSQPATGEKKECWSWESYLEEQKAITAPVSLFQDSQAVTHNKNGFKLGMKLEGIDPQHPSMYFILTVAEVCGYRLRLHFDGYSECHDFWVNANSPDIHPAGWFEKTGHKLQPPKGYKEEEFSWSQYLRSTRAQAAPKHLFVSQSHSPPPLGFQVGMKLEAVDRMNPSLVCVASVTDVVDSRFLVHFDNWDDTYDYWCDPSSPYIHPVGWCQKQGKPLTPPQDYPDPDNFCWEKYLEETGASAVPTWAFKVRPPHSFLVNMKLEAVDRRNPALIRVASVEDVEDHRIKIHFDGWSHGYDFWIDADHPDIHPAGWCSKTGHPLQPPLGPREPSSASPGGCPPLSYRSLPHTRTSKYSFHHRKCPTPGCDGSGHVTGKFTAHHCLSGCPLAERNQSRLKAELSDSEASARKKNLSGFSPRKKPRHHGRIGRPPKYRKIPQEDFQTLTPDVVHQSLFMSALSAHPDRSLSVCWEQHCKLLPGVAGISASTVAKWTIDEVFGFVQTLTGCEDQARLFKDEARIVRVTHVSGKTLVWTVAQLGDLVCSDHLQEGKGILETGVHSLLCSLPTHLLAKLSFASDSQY

SMILES	Potency
COc1ccc(NC(=S)N(Cc2ccc(N(C)C)cc2)Cc2ccco2)cc1	inconclusive: 28.2 µM [inhibitor, partial curve]
O=[N+]([O-])c1ccccc1S(=O)(=O)N1CCN(Cc2cc3c(cc2O)OCO3)CC1	inconclusive: 25.1 µM [inhibitor, single point]
N=c1c2c(-c3ccccc3)c(-c3ccccc3)oc2ncn1Cc1ccco1	inconclusive: 28.2 µM [inhibitor, single point]
COC(=O)c1cccc(NC(=O)CN2C(=O)C3CCCCC3C2=O)c1 (configuration not stated)	inconclusive: 6.31 µM [inhibitor, single point]
O=C(CS(=O)(=O)c1ccccc1)c1ccc2c(c1)OCCO2	inconclusive: 2.24 µM [inhibitor, partial curve]
Cc1c(S(=O)(=O)c2ccccn2)c(N)n(Cc2cccc(Cl)c2)c1C	inactive
O=C(O)c1ccc(-n2[nH]c3c(c2=O)CCCC3)cc1	inconclusive: 25.1 µM [inhibitor, single point]
CN(C)C(=O)N1CCCC(C(=O)NCc2ccc(F)cc2Cl)C1 (configuration not stated)	inconclusive: 2.82 µM [inhibitor, single point]
CCOC(=O)c1ccc2nc3c(cc2c1)CCS3	inactive
COc1ccc(Nc2nc(-c3c(C)nc4ncccn34)cs2)cc1	inconclusive: 14.1 µM [inhibitor, partial curve]
COc1cc2nc(N(CCCN(C)C)C(=O)c3ccc(S(=O)(=O)N4CCc5ccccc5C4)cc3)sc2cc1OC	inactive
CC(C)C(NC(=O)c1ccccc1)C(=O)NCCc1ccccc1 (configuration not stated)	inactive
COc1cnc(-c2ccccn2)nc1Oc1ccc(Cl)cc1	inconclusive: 22.4 µM [inhibitor, single point]
O=C(/C(=C/O)N=Nc1ccccc1Cl)c1ccccc1	inconclusive: 3.55 µM [inhibitor, full curve]
O=C(OCc1ccc(F)cc1Cl)c1ccccn1	inconclusive: 6.31 µM [inhibitor, single point]
COCCn1c(=S)[nH]c2cc(C(=O)NCC3CCCO3)ccc2c1=O (configuration not stated)	inactive
Cc1cccc(N(CC(=O)N2CCCC2)S(C)(=O)=O)c1	inconclusive: 1.41 µM [inhibitor, single point]
COCCNc1cc(C)c(C#N)c2nc3ccccc3n12	inconclusive: 7.08 µM [inhibitor, single point]
CC/C(C)=N\N=C\c1c(O)n(CC)c2cc(C3=NNC(=O)CC3)ccc12	inactive
CC1(C)CC(N2CCCC2)=CC(=[N+]2CCCC2)C1	inconclusive: 25.1 µM [inhibitor, partial curve]
Cc1noc(C)c1C(=O)OCC(=O)Nc1ncc(Cl)c(C)c1Cl	inconclusive: 28.2 µM [inhibitor, single point]
Cc1ccc([N+](=O)[O-])cc1N(CC(=O)NC1CCCC1)S(C)(=O)=O	inconclusive: 0.891 µM [inhibitor, single point]
O=C1CC(c2ccccc2)C(=O)N1c1cccc(O)c1 (configuration not stated)	inconclusive: 1 µM [inhibitor, single point]

SMILES	Potency
CCc1ccc([C@H]2C(C(=O)O)=C[C@@H](CC)N2S(=O)(=O)c2ccc(C)cc2)cc1	inactive
O=C(O)C1Cc2ccccc2CN1C(=O)COc1ccc(Cl)cc1 (configuration not stated)	inconclusive: 39.8 µM [inhibitor, single point]
CC(C)(C)NC(=O)Nc1ccc(F)c(Cl)c1	inactive
CCc1ccc(NC(=O)CSc2nc(NS(=O)(=O)c3ccccc3)cc(=O)[nH]2)cc1	inconclusive: 10 µM [inhibitor, partial curve]
O=C1C2CC=C(Cl)CC2C(=O)N1c1ncn[nH]1 (configuration not stated)	inconclusive: 28.2 µM [inhibitor, partial curve]
C#CCOCCOCCOCCNc1nc(N2CCN(C(=O)CCCCCCCCCCNC(=O)Cn3cc(C[C@@H](C)O)nn3)CC2)nc(N2CCN(C(=O)CCCCCCCCCCNC(=O)[C@H](CCCN=C(N)N)n3cc(C[C@@H](C)CC)nn3)CC2)n1	inconclusive: 5.62 µM [inhibitor, single point]
CN(C)c1ccc(N/C(=N\S(=O)(=O)c2cccs2)c2ccccc2)cc1	inconclusive: 25.1 µM [inhibitor, single point]
COc1cc(C)c(CN2CCC(Cc3ccccc3)CC2)cc1C	inactive
CCOC(=O)Cc1c(C)nc(Cc2ccc(OC(C)C)cc2)[nH]c1=O	inconclusive: 6.31 µM [inhibitor, single point]
COc1ccc(-c2cnnc(N/N=C/c3ccc(O)c(O)c3)n2)cc1	inconclusive: 35.5 µM [inhibitor, single point]
Cc1ccc(Cc2c(C)nc3nc(SCC(=O)NCc4ccco4)nn3c2C)cc1	inconclusive: 39.8 µM [inhibitor, single point]
Cc1ccccc1C(=O)c1c[nH]c(C(=O)N2CCN(c3ccccc3F)CC2)c1	inconclusive: 2.82 µM [inhibitor, full curve, poor fit]
CCC(C(=O)OCC(=O)Nc1cccc(S(=O)(=O)NC2=NCCCCC2)c1)c1ccccc1 (configuration not stated)	inconclusive: 0.141 µM [inhibitor, full curve, poor fit]
CCn1c(COc2ccccc2)nnc1SCC(=O)C(C)(C)C	inconclusive: 7.08 µM [inhibitor, single point]
CCN(CCNC(=O)C1CCCN(Cc2nc(-c3ccc(OC)cc3)oc2C)C1)c1ccccc1 (configuration not stated)	inconclusive: 31.6 µM [inhibitor, single point]
c1ccc(CSc2nc3ncccn3n2)cc1	inactive
COC(=O)c1sc(NC(=O)COc2cccnc2[N+](=O)[O-])c(C(=O)OC)c1C	inconclusive: 25.1 µM [inhibitor, single point]
COc1ccc(C(=O)COC(=O)c2cc(C)no2)c(OC)c1	inconclusive: 22.4 µM [inhibitor, single point]
Cn1ccnc1SCC(=O)Nc1cccc(C#N)c1	inconclusive: 1.41 µM [inhibitor, single point]
O=[N+]([O-])c1cccc(C2NCC(c3ccccc3Cl)c3c2[nH]c2ccccc32)c1 (configuration not stated)	inconclusive: 20 µM [inhibitor, partial curve]
COc1cc(NC(=O)c2cccs2)c(OC)cc1NC(=O)Nc1ccc(F)cc1	inconclusive: 7.94 µM [inhibitor, single point]
O=C1CC(C(=O)Nc2ccccc2)N=C(N2CCOCC2)N1 (configuration not stated)	inconclusive: 39.8 µM [inhibitor, single point]
Cc1ccc(C(=O)OCC(=O)N2c3ccccc3NC(=O)C2(C)C)cc1S(=O)(=O)N1CCCCC1	inconclusive: 39.8 µM [inhibitor, single point]

SMILES	Potency
O=C(CSc1nnc(C2CC2)n1Cc1ccco1)NCC(F)(F)F	inconclusive: 0.631 µM [inhibitor, full curve, poor fit]
CC(=O)NNC(=S)Nc1cccc(F)c1	inactive
C=C(C)COc1ccc(-c2n[nH]c(C)c2-c2ccc(OC)cc2)c(O)c1	inconclusive: 5.01 µM [inhibitor, single point]
C/C(=N\NC(=O)C12CCC(C)(C(=O)O1)C2(C)C)c1ccccc1O (configuration not stated)	inactive
CCc1[nH]nc2c1C1(CCN(C(=O)OCc3ccccc3)CC1)C(C#N)=C(N)O2	inconclusive: 4.47 µM [inhibitor, single point]
CC1=NN(c2ccccc2)C(=O)/C1=C/c1ccc[nH]1	inconclusive: 28.2 µM [inhibitor, partial curve]
Cc1ccc(-n2c(SCC(=O)NCc3ccco3)nc3sc4c(c3c2=O)CC(C)(C)SC4)cc1	inconclusive: 4.47 µM [inhibitor, single point]
NC(=O)c1cc(N2C(=O)C=CC2=O)ccc1Cl	inactive
COc1ccc(N2CSC3=C(C#N)C(c4cccs4)CC(=O)N3C2)cc1 (configuration not stated)	inconclusive: 35.5 µM [inhibitor, partial curve, poor fit]
COc1cc(Nc2ccc(S(=O)(=O)N3CCN(C)CC3)cc2[N+](=O)[O-])cc(OC)c1	inconclusive: 39.8 µM [inhibitor, single point]
NS(=O)(=O)c1ccc(NC(=S)NCc2ccccc2Cl)cc1	inactive
CCC(=O)Nc1nnc(SCC(=O)c2ccc3c(c2)Cc2ccccc2-3)s1	inactive
CC1(c2ccc3c(c2)OCCCO3)NC(=O)N(CC(=O)NCCc2ccccc2)C1=O (configuration not stated)	inconclusive: 5.62 µM [inhibitor, single point]
CN(c1ccccc1)S(=O)(=O)c1ccc2c(c1)OCCO2	inconclusive: 1.58 µM [inhibitor, single point]
Cc1cccc(CSc2nc3c(cc2C#N)CCC3)c1	inactive
COc1ccc(-n2c(CCC(=O)O)ccc2-c2ccccc2)cc1	inconclusive: 25.1 µM [inhibitor, partial curve]
O=C(NC(=S)/C(=C1\CCCCCN1)[N+](=O)[O-])c1ccccc1	inconclusive: 1.41 µM [inhibitor, single point]
O=[N+]([O-])c1cccc(C2Nc3cccc4cccc(c34)N2)c1	inactive
CC[C@@]12C(=O)N(c3ccc(C)cc3)C(=O)N1[C@H](c1ccc(OC)cc1)[C@@H]1C(=O)N(C(C)(C)C)C(=O)[C@@H]12	inconclusive: 5.62 µM [inhibitor, single point]
COC(=O)c1ccc(COc2ccc(/C=N/Nc3cccc(C(=O)O)c3)cc2)cc1	active: 25.1 µM
CC1CCN(S(=O)(=O)c2ccc(NC(=O)C3CSC4(C)CCC(=O)N34)cc2)CC1 (configuration not stated)	inconclusive: 31.6 µM [inhibitor, single point]

From PubChem BioAssay AID485360 (National Center for Advancing Translational Sciences (NCATS), 2010)
